# The full ranking holds about 81,000 sequences; the median of “one-hybrid fitness for binding NBS DNA” is about -0.1, and the highest 2% start at about 0.36. The list shows a part of the results.
# B1: Caulobacter ParB omega fusion; a variant is named by its letters at X, in order, B8GW30 (parent)
# chain: MESVVVGEPGMSEGRRGLGRGLSALLGEVDAAPAQAPGEQLGGSREAPIEILQRNPDQPRRTFREEDLEDLSNSIREKGVLQPILVRPSPDTAGEYQIVAGERAWRAAQRAGLKTVPIMVRELDDLAVLEIGIIENVQRADLNVLEEALSYKVLMEKFERTQENIAQTIGKSXSHVANXMRLLXLPDEVQSYLVSGELTAXHARAIAAAADPVALAKQIIEGGLSVRETEALARKAPNLSAGKSKGGRPPRVKDTDTQALESDLSSVLGLDVSIDHRGSTGTLTITYATLEQLDDLCNRLTRGI
# Variants of: B1
# Assay: one-hybrid fitness for binding NBS DNA (the Noc-binding site; scaled: cognate 1, non-cognate 0); higher = stronger binding
# Conditions: with NBS DNA site
# Method in brief: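 On M9-minus-histidine containing 0.1 mM IPTG and 5 mM 3-AT, E. coli USO cells with a HIS3 reporter, site 19 bp from the promoter, grew 48 hours at 37°C to select Caulobacter ParB libraries randomised at four specificity codons. Plasmids from before and after were Illumina-sequenced, with three replicate libraries pooled and variants under 10 reads left out. Fitness is the log change in variant-to-wild-type read ratio, rescaled against cognate and non-cognate.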
row,Variant,one-hybrid fitness for binding NBS DNA
1,AATG,≤ 0.2
2,QFNW,≤ 0.2
3,WSKI,≤ 0.2
4,LWKR,0.238
5,HTSA,≤ 0.2
6,QTMI,≤ 0.2
7,LQKL,≤ 0.2
8,RKNR,0.639
9,ISNF,≤ 0.2
10,ELLS,≤ 0.2
11,QCLS,0.382
12,INVY,≤ 0.2
13,HPMI,≤ 0.2
14,VPST,≤ 0.2
15,PTVC,≤ 0.2
16,YTGC,≤ 0.2
17,AKQG,≤ 0.2
18,SSKV,≤ 0.2
19,SWDT,≤ 0.2
20,LDWE,≤ 0.2
21,HNNK,≤ 0.2
22,DYNS,≤ 0.2
23,TAMC,≤ 0.2
24,FREY,≤ 0.2
25,SVGR,≤ 0.2
26,DLDL,≤ 0.2

row,Variant,one-hybrid fitness for binding NBS DNA
1,SQQK,≤ 0.2
2,LQVR,≤ 0.2
3,ATNN,≤ 0.2
4,GNTY,≤ 0.2
5,NPEL,≤ 0.2
6,GHRN,≤ 0.2
7,WNEG,≤ 0.2
8,WRNE,≤ 0.2
9,LCNK,≤ 0.2
10,ATRH,≤ 0.2
11,KMTV,≤ 0.2
12,GSHW,≤ 0.2
13,ENVS,≤ 0.2
14,HISW,≤ 0.2
15,HLND,≤ 0.2
16,AECP,≤ 0.2
17,RERY,≤ 0.2
18,YNSW,≤ 0.2
19,LLSN,≤ 0.2
20,GKGG,≤ 0.2
21,LLLL,≤ 0.2
22,PYAI,≤ 0.2
23,VWHG,≤ 0.2
24,MPSP,≤ 0.2
25,RLNG,≤ 0.2
26,QCAP,≤ 0.2

row,Variant,one-hybrid fitness for binding NBS DNA
1,KGQS,≤ 0.2
2,DVGC,≤ 0.2
3,LHIS,≤ 0.2
4,AIVT,≤ 0.2
5,PMCD,≤ 0.2
6,HLME,≤ 0.2
7,LKMD,≤ 0.2
8,KDSC,≤ 0.2
9,RNDF,≤ 0.2
10,ILRN,≤ 0.2
11,AFHS,≤ 0.2
12,PQTC,≤ 0.2
13,PMSL,≤ 0.2
14,SRNH,≤ 0.2
15,TGVC,≤ 0.2
16,SLIM,≤ 0.2
17,KTWG,≤ 0.2
18,ILQI,≤ 0.2
19,NGAT,≤ 0.2
20,SHFF,≤ 0.2
21,FQCS,≤ 0.2
22,YPPS,≤ 0.2
23,YNPF,≤ 0.2
24,QWFE,≤ 0.2
25,KSCA,≤ 0.2
26,FDRN,≤ 0.2

row,Variant,one-hybrid fitness for binding NBS DNA
1,QNAS,≤ 0.2
2,TMCS,≤ 0.2
3,CRAP,≤ 0.2
4,FHAS,≤ 0.2
5,LFTN,≤ 0.2
6,RTSD,≤ 0.2
7,HTWD,≤ 0.2
8,NTMW,≤ 0.2
9,AKHT,≤ 0.2
10,QVRE,≤ 0.2
11,QHAF,≤ 0.2
12,PRRC,≤ 0.2
13,MWHT,≤ 0.2
14,LWKT,0.333
15,YHNR,≤ 0.2
16,QTPE,≤ 0.2
17,IITG,≤ 0.2
18,VIHV,≤ 0.2
19,EYNK,≤ 0.2
20,RWKQ,≤ 0.2
21,QVHS,0.296
22,QSEC,≤ 0.2
23,QIHT,0.425
24,RHID,≤ 0.2
25,RDEP,≤ 0.2
26,MVWR,≤ 0.2

row,Variant,one-hybrid fitness for binding NBS DNA
1,VWLW,≤ 0.2
2,KLQE,≤ 0.2
3,KSHS,≤ 0.2
4,YIHC,≤ 0.2
5,RLEY,≤ 0.2
6,FALE,≤ 0.2
7,CNRV,≤ 0.2
8,QPHM,≤ 0.2
9,QDAF,≤ 0.2
10,NGIR,≤ 0.2
11,RKGE,≤ 0.2
12,QSYM,≤ 0.2
13,IASF,≤ 0.2
14,GLLV,≤ 0.2
15,IRSG,≤ 0.2
16,TNRP,≤ 0.2
17,HQGR,≤ 0.2
18,GSTR,≤ 0.2
19,MYIT,≤ 0.2
20,WDYS,≤ 0.2
21,GYDF,≤ 0.2
22,GNCL,≤ 0.2
23,SHKT,≤ 0.2
24,PIPK,≤ 0.2
25,QRDR,0.679
26,SGKV,≤ 0.2

row,Variant,one-hybrid fitness for binding NBS DNA
1,SHSG,≤ 0.2
2,PWPN,≤ 0.2
3,YHNH,≤ 0.2
4,TGVW,≤ 0.2
5,GSNY,≤ 0.2
6,VPQC,≤ 0.2
7,HWFC,≤ 0.2
8,HHDG,≤ 0.2
9,MGLR,≤ 0.2
10,NQKN,≤ 0.2
11,HRLV,≤ 0.2
12,HNGL,≤ 0.2
13,QWQS,≤ 0.2
14,TWQC,≤ 0.2
15,TRFK,≤ 0.2
16,STFG,≤ 0.2
17,PYAY,≤ 0.2
18,SAIC,≤ 0.2
19,RTMH,≤ 0.2
20,QVIY,≤ 0.2
21,AGHT,≤ 0.2
22,WYGG,≤ 0.2
23,VRWG,≤ 0.2
